{
  "source": "patent US20240299401A1",
  "about": "“NOVEL REDOX-BASED THERAPEUTIC APPROACH FOR TREATMENT OF CANCER” (THE PENN STATE RESEARCH FOUNDATION, priority 2020, published 2024)",
  "test_system": "NFE2L2",
  "assay": "NFE2L2 reporter assay in MCF7 cells",
  "settings": "increasing doses, 6 and 24 h",
  "data": [
    {"molecule": "c1ccc([Se][Se]c2ccccc2)cc1", "note": "[Diphenyl diselenide, diphenyl diselenide]", "values": [
      {"measurement": "NFE2L2 activity and extracellular reduced thiols", "value": "dose-dependent increase"}
    ]}
  ]
}
